# Measurements: PubChem BioAssay AID624417 (National Center for Advancing Translational Sciences (NCATS), 2012)
# The campaign covered roughly 410,000 compounds. About 6,400 (1.6%) were called active. The shares of active, inactive and inconclusive entries below differ from those in the screen. Calls follow the shape of the dose curve; as a rule, active = well fitted inhibition curve with a large enough effect; inconclusive = small, poorly fitted or top-dose-only effect; inactive = no such curve, though single readings can be large or run the other way. Potencies of inconclusive entries are left out as doubtful fits.
# Biological target: Glucagon-like peptide 1 receptor (Homo sapiens) (UniProt P43220)
# Experiment: qHTS of GLP-1 Receptor Inverse Agonists (Inhibition Mode); also: nearly all actives have a fitted effect of over 55% in size
# Conditions: HEK293 GLP-1R CRE-luciferase, luminescence, 24 h, GLP-1R form is constitutively active; series mostly up to 38.3 µM
# Procedure, shortened: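 Seeding at 200 cells/uL, 12 h culture, 24 hr compound treatment, then luciferase reagent and a luminescence read; cells are HEK293 stably expressing a constitutively active GLP-1R plus cAMP-responsive luciferase.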
# Potency is read from the fitted curve at half-maximal effect; tags tell the direction and shape of the fitted curve.
# Sequence of UniProt P43220 (P43220 whole entry, looked up): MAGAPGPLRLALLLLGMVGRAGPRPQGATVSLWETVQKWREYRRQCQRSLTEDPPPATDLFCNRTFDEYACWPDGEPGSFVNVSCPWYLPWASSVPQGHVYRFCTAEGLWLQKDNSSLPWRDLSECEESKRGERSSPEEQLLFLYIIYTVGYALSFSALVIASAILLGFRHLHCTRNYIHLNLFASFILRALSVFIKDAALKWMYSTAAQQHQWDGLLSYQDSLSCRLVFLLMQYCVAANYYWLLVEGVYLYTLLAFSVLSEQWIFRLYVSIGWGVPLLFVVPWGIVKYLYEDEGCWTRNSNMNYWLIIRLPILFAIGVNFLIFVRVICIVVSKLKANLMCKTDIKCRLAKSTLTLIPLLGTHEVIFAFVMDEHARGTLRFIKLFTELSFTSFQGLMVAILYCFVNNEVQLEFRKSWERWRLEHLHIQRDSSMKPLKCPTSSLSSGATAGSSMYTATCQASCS
row,Compound,Potency
1,CC(C)C[C@H](NC(=O)c1[nH]cnc1C(=O)Nc1ccc(CNC(=O)OC(C)(C)C)cc1)C(=O)OCc1ccccc1,"inconclusive [inhibitor, single point]"
2,COC(=O)[C@@]12CCCN1[C@H](c1ccc(-c3ccc(OC)cc3)c(OC)c1)[C@@H]1C(=O)N(C)C(=O)[C@@H]12,inactive
3,O=S(=O)(Nc1ncnc2sc3c(c12)CCC3)c1ccc(Cl)s1,"inconclusive [inhibitor, partial curve, poor fit]"
4,CCN1C(=O)C(O)(c2c[nH]c3ccccc23)c2cc(Br)ccc21 (stereo unspecified),"inconclusive [inhibitor, single point]"
5,CCOC(=O)c1ccc(-c2c(-c3ccccc3OC)oc3ccccc23)cc1F,"inconclusive [inhibitor, single point]"
6,CCOc1ccc(CN(C)C(C)C(=O)NCc2ccccc2)cc1 (stereo unspecified),"inconclusive [inhibitor, partial curve, poor fit]"
7,CCOc1ccc(OCc2ccc(C(=O)N(C)c3ccccc3)o2)cc1,"inconclusive [inhibitor, single point]"
8,COc1cccc(Cl)c1NC(=O)N1CCN(c2ccnc3cc(Cl)ccc23)CC1,"inconclusive [inhibitor, partial curve, poor fit]"
9,CCN(CC)CCn1c2c(c(SCC(=O)Nc3ccccc3Cl)nc1=O)CCC2,"inconclusive [inhibitor, single point]"
10,CC(N=c1ccccn1C(=O)Nc1cccc(C(F)(F)F)c1)c1ccco1 (stereo unspecified),"inconclusive [inhibitor, partial curve, poor fit]"
11,CC1CCCN(C(=O)CNC(=O)c2sc3ccccc3c2Cl)C1 (stereo unspecified),"inconclusive [inhibitor, single point]"
12,CCc1cccc(C)c1NS(=O)(=O)c1ccc2c(c1)CC(C)N2C(=O)C1CC1 (stereo unspecified),"inconclusive [inhibitor, single point]"
13,O=C(Nc1ccccc1F)C1(c2ccccc2)CC1(Cl)Cl (stereo unspecified),"inconclusive [inhibitor, partial curve, poor fit]"
14,O=C(NCCCCc1ccccc1)C12CN(Cc3ccccc3)CC1C(c1cccc([N+](=O)[O-])c1)=NO2 (stereo unspecified),"inconclusive [inhibitor, single point]"
15,Cc1c(NC(=O)/C(C#N)=C/c2ccc(-c3cccc(Cl)c3)o2)c(=O)n(-c2ccccc2)n1C,"inconclusive [inhibitor, single point]"
16,COc1ccccc1/C=N/NC(=O)CC(=O)Nc1ccc(Cl)c(Cl)c1,"inconclusive [inhibitor, single point]"
